In PMC4336329 (PLoS ONE, 2015):
Screen size: about 310,000 compounds; about 2,200 (0.71%) showed an effect of 50% or more. Effects have a minus sign here. Some of the results follow.

biological target: human ether-à-go-go-related gene (hERG) potassium channel (human, UniProt Q12809); assay: primary screen, population patch clamp on CHO cells stably expressing hERG
Sequence (Q12809 whole entry, looked up): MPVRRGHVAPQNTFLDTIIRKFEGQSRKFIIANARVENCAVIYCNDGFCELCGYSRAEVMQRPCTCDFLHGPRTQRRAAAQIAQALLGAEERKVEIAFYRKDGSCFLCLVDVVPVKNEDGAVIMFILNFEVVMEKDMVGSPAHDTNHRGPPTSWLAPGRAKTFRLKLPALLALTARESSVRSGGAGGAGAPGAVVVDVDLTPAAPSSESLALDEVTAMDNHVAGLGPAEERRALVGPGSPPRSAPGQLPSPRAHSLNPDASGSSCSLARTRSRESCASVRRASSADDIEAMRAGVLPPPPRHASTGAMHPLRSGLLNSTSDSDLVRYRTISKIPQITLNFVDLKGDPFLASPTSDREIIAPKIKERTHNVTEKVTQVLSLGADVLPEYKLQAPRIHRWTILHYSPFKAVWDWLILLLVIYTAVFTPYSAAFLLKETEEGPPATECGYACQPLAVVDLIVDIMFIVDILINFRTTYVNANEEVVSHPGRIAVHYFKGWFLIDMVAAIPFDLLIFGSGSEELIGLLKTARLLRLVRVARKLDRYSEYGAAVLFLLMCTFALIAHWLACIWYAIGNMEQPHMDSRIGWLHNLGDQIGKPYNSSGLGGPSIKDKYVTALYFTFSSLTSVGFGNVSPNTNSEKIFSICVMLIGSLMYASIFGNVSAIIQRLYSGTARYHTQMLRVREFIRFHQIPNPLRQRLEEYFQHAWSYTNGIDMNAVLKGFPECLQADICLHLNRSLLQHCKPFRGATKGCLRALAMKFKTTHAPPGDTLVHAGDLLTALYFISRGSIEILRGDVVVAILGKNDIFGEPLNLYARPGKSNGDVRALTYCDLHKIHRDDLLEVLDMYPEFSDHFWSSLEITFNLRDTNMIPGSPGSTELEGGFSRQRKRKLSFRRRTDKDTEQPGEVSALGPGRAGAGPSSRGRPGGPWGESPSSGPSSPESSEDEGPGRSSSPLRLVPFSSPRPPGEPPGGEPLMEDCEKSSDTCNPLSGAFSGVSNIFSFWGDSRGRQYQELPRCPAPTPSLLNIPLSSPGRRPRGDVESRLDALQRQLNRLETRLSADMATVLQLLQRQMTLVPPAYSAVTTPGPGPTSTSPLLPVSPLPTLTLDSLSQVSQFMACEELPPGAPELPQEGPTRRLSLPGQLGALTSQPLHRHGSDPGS

Structure (SMILES) | hERG current change (%, negative = inhibition) at 1uM
CC(C)(O)C#Cc1ccc(CN2CCN(C3CCCC3)C(CCO)C2)cc1 (stereo not drawn) | 14.6%
Cl.O=C(O)CCn1c(CO)nc2ccccc21 | 13%
CC(=O)Nc1ccc(NC(=O)CCOc2cc(C)ccc2C)cc1 | 23%
CCn1ccnc1CN1CCc2c([nH]c3ccccc23)C1C(C)(C)C (stereo not drawn) | 0.362%
O=C(c1cccs1)c1c[nH]cc1-c1ccccc1 | 14.5%
COC(=O)[C@H]1[C@H]2C[C@H]3c4[nH]c5ccccc5c4CCN3C[C@@H]2CC[C@@H]1O | 6.91%
Cc1ccc2nc(NC(=O)c3cc(-c4ccco4)nc4ccccc34)sc2c1 | 13.4%
Nc1nc(-c2cccs2)cs1 | 6.26%
O=C1CN(C(=O)COC(=O)COc2ccc3c(c2)CCC3)c2ccccc2N1 | 10%
CN(C)c1cccc(C(=O)NNC(=O)CSc2ccccc2)c1 | 26.9%
O=C(NCCCO)c1ccc(CSc2nc3ccccc3c(=O)[nH]2)cc1 | -11.3%
CSCCC(NC(=O)c1ccc([N+](=O)[O-])cc1Cl)C(=O)OCC(=O)N1CCN(C(C)=O)CC1 (stereo not drawn) | 4.68%
O=C(N/C(=C\c1ccco1)C(=O)N1CCCC1CO)c1ccccc1 (stereo not drawn) | 10.6%
CC(C)(C)OC(=O)NCCCCCc1nnc(SCc2ccccc2F)o1 | -2.15%
O=C(Nc1cccc(F)c1)c1cc(S(=O)(=O)NCCC2=CCCCC2)ccc1F | 13%
COc1ccccc1N1C(=O)c2ccc(C(=O)Nc3ccccc3O)cc2C1=O | 13.5%
CCN(CC(=O)N1CCc2ccccc2C1)S(=O)(=O)c1ccc2ccccc2c1 | -2.77%
COc1ccc(/C=N/NC(=O)c2cccnc2)cc1CN1CCc2cc(OC)c(OC)cc2C1C (stereo not drawn) | 1.82%
O=C(Cc1ccccc1)c1ccc2c(c1)OCCO2 | 3.23%
COc1ccccc1S(=O)(=O)Cc1ccc(C(=O)NCCN(C)C)o1 | 10.6%
CN1C2CCC1CC(OC(=O)c1ccc(Cl)cc1)(C(=O)O)C2.Cl (stereo not drawn) | 2.55%
COc1ccc(/C=N/NC(=O)c2cccc(C(=O)N/N=C/c3ccc(OC)cc3)n2)cc1 | 23.9%
O=C(Nc1ccc(F)c(F)c1)c1ccc(-n2cncn2)c([N+](=O)[O-])c1 | 9.62%

Structure (SMILES) | hERG current change (%, negative = inhibition) at 1uM
Nc1ccc(C(=O)O)cc1[N+](=O)[O-] | 17.2%
c1ccc2[nH]c(NCCCN3CCOCC3)nc2c1 | 14.6%
CNC(=O)C1CCN(C(=O)c2ccc(-c3ccccc3)cc2)CC1 | 8.93%
COC(=O)c1ccccc1S(=O)c1snnc1C (stereo not drawn) | 14.5%
NNC(=O)C12CC3CC(C1)CC(n1ncnn1)(C3)C2 | 7.93%
O=C(O)CCCC(=O)Nc1ccc(S(=O)(=O)Nc2nccs2)cc1 | 9.23%
Cc1[nH]c2ccccc2c1C(=O)COC(=O)c1cccc(S(=O)(=O)N2CCCCC2)c1 | 14.1%
Cc1ccc(NS(=O)(=O)c2c(C)[nH]c(=O)[nH]c2=O)cc1F | -8.76%
COc1cnc(-c2ccccn2)nc1Oc1c(C)cccc1C | 14.2%
O=[N+]([O-])c1cc2c(cc1/C=N/Nc1nc(N3CCCC3)nc(N3CCCC3)n1)OCO2 | -5.94%
Cc1ccc(-c2nn3c(=O)c(C)nnc3s2)cc1 | 12.7%
COc1ccc(/C(N)=N/OC(=O)CSc2ccc(C)cc2)cc1 | 13.1%
COCCNC(=O)C(c1ccc(C)o1)N(CCOC)C(=O)Cn1nnc2ccccc21 (stereo not drawn) | 11.7%
CCCCCC(=O)NNC1CC(=O)N(c2ccccc2)C1=O (stereo not drawn) | 11.7%
CCOc1ccc(C(=O)Nc2nc(C)c(C(=O)OC)s2)cc1 | 13.9%
Cc1cccc(-n2c(-c3ccco3)nc3ccccc3c2=O)n1 | 18.6%
COc1cccc(NC(=O)CSc2nn3c(=O)c(C)nnc3s2)c1 | 11%
Cc1c(Cl)cccc1NC(=S)N1CCN(C(=O)C2CCCO2)CC1 (stereo not drawn) | 12%
COc1ccc(CNC(=O)[C@H](C)N2C(=O)N3CCc4c([nH]c5ccccc45)[C@@]3(C)C2=O)cc1OC | -4.09%
Cc1sc2ncnc(SCC(=O)NC(=O)c3cccn3C)c2c1C | 10.4%
COc1ccccc1NC(=S)NCc1cccnc1 | 9.53%
C#CCN(Cc1ccco1)C(=O)c1cc(COc2ccc(F)cc2Cl)on1 | 7.25%
CCOC(=O)c1oc2ccccc2c1CSc1nnc(-c2ccco2)o1 | 14.6%

Structure (SMILES) | hERG current change (%, negative = inhibition) at 1uM
COC(=O)c1cccc(NC(=O)CCNC(=O)c2ccco2)c1 | 14.7%
Cc1cccc(-n2c(SCc3cc(=O)n4c(C)cccc4n3)nc3[nH]ncc3c2=O)c1 | 3.04%
Cc1cc(C)cc(NC(=O)CSc2ccccc2)c1 | 1.16%
Cc1cc(C)c(NC(=O)C2c3ccccc3Oc3ccccc32)c(C)c1 | 9.4%
O=C(Nc1nc2ccccc2n1CCN1CCCC1)C1CCCCC1 | -39.5%
CCn1cc(-c2cc(C(=O)O)on2)c(C)n1 | 16.8%
COc1cc(NC(=O)c2onc(C)c2Cl)c(OC)cc1Cl | 5.83%
COc1cccc([C@@H]2Oc3ccc(OC)cc3C(=O)[C@H]2OC(=O)NCc2ccc3c(c2)OCO3)c1 | -3.02%
COc1ccc(-c2ccc(-c3noc(C4CCCCC4)n3)c(OC)n2)cc1 | 6.83%
O=C(Nc1ccccc1)N1CCN(c2ccc(F)cc2)CC1 | 9.95%
Cc1cccc(OCCC(=O)Nc2cc(S(=O)(=O)N3CCCCC3)ccc2N2CCOCC2)c1 | 3.58%
O=c1[nH]c(=O)n(-c2cccc3ccccc23)c(O)c1/C=N/N1CCCCC1 | 12.3%
CCc1cc2c(=O)c(-c3ccc4c(c3)OCCO4)coc2c(CN2CCCCC2C)c1O (stereo not drawn) | 17.2%
CCCOc1ccc(CC(CC(=O)O)(C(=O)O)C(=O)O)cc1 | 2.75%
O=[N+]([O-])c1ccc2c(c1Nc1ccccc1Cl)=NC1(CCCCC1)N=2 | 7.39%
CCCS(=O)(=O)N1CCCC(C(=O)NCCCN(Cc2ccccc2)C(C)C)C1 (stereo not drawn) | 6.94%
COC(=O)c1cc(C(=O)N2CCN(C(=O)c3ccco3)CC2)cc([N+](=O)[O-])c1 | -11.5%
Cc1cccc(C)c1NC(=O)C1CCN(C(=O)c2cccs2)CC1 | 13.7%
CC(C)NC(=O)N1CCC(c2nc3ccccc3s2)CC1 | 11%
CC1CCN(c2ccc(S(=O)(=O)N3CCC(C)CC3)cc2N)CC1 | 11.1%
COc1ccc(CNC(=O)COC(=O)CO/N=C(\C)c2ccc3c(c2)OCO3)cc1 | 12%
COc1cccc(-c2csc(N3CCN(C(=S)Nc4cccc(C)c4)CC3)n2)c1 | 9.44%
Cc1ccc(-n2nc3c(=O)n(CC(=O)NC4CCCCCC4)nc(C)c3c2C)cc1 | 17%

Structure (SMILES) | hERG current change (%, negative = inhibition) at 1uM
CC(C)(C)n1ncc2c(=O)n(CC(=O)N3CCc4ccccc43)cnc21 | -2.03%
O=C(O)c1ccccc1S(=O)(=O)NCC(O)COc1ccc(Br)cc1 (stereo not drawn) | 6.47%
Cc1ccc(CNC(=O)c2cn(C3CCCCC3)c(=O)c3c2c2ccccc2n3C)o1 | 5.04%
COC(=O)/C=c1/s/c(=C(\C#N)C(=O)NCc2ccco2)n(-c2ccc(C)cc2)c1=O | 11%
Br.O=S(=O)(c1ccc(-c2csc(Nc3ccc(Br)cc3)n2)cc1)N1CCCC1 | 1.99%
O=C(Cc1cccs1)N/N=C/c1ccccc1 | 7.63%
Cc1ccccc1NC(=S)NCCO | 16.9%
N#Cc1c(NC(=O)C2CC2)sc2c1CCCCC2 | -5%
O=C(NCc1ccccc1F)C12CC3CC(CC(C3)C1)C2 | 5.4%
Cc1ccc(OC(C)C(=O)Nc2ccccc2C(=O)N2CCOCC2)cc1 (stereo not drawn) | 11.8%
CCCN1C2CCCC1CC(NC(=O)NC1CCCCC1)C2 (stereo not drawn) | 1.63%
CCN(Cc1ccncc1)C(=O)c1ccccc1NS(=O)(=O)c1ccc(Br)cc1 | 10.2%
COc1ccccc1C1CCN(Cc2ccc(Cl)c(Cl)c2)CC1 | 10.4%
CCN1CCN(C(=O)CCc2nnc(CCCCc3ccccc3)o2)[C@@H](C)C1=O | 12.1%
O=C(COC(=O)c1c(Cl)cccc1Cl)NCC1CCCO1 (stereo not drawn) | 2.23%
NC(=O)Cn1cc(C(=O)c2ccccc2F)c2ccccc21 | 16.7%
Cc1ccc2nc(N(CCN(C)C)C(=O)/C=C/c3cccs3)sc2c1.Cl | 8.73%
Cc1ccc(NC(=O)N2CCCC2)cc1Cl | 10.3%
CC(C)C1C(C#N)=C(N)Oc2n[nH]c(-c3ccc4ccccc4c3)c21 (stereo not drawn) | 17.8%
c1ccc(-c2nnc(OCC3CCCO3)c3ccccc23)cc1 (stereo not drawn) | 17.4%
CCn1c(CSCc2ccc(C)cc2)nnc1SCC(=O)NCc1ccccc1 | 0.83%
